# Measured values published in PubChem BioAssay AID485294 (National Center for Advancing Translational Sciences (NCATS), 2010).
# About 150 (0.041%) of roughly 370,000 compounds were called active. The inconclusive results got no clear call from the source; some entries with a clear call stand among them for comparison. Calls come from the whole dose curve; as a rule, active = well fitted inhibition curve with a large enough effect; inconclusive = small, poorly fitted or top-dose-only effect; inactive = flat fitted curve, though single readings scatter. No potency is given beside an inconclusive call; the fits are too rough.
# Molecular target: Beta-lactamase (Escherichia coli (strain K12)) (UniProt P00811)
# Chain of UniProt P00811 (P00811 whole entry, looked up): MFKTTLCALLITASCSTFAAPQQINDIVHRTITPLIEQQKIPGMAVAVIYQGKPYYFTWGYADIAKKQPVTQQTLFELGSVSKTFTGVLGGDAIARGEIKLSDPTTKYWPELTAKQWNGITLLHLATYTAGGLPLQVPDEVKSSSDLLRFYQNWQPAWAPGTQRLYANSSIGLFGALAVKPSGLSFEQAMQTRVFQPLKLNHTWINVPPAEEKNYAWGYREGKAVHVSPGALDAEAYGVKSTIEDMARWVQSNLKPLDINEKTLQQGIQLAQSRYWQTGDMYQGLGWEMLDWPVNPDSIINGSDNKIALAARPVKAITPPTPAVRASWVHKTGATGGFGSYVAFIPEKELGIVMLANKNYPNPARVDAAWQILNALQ
# Experiment: qHTS Inhibitors of AmpC Beta-Lactamase (assay with detergent); note: nearly all actives have a fitted effect of over 25% in size
# Conditions: AmpC hydrolysis of nitrocefin, absorbance 480 nm, 0.01% Triton; series mostly up to 114 µM
# Summary of the method: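 20 mM phosphate pH 7.0 + 0.01% (detergent screen) or 0.0001% Triton X-100; 5.3 nM AmpC reagent; cpd preinc 15 min RT; nitrocefin (800 uM stock) to start; A480 q20 s × 4 min; Activity was normalised to no-enzyme and no-compound control wells.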
# Potency is the fitted concentration of half-maximal effect; tags give direction and shape of the fitted curve.
row,SMILES,Potency
1,Cc1ccsc1C(=O)Nc1nccs1,"inconclusive [inhibitor, partial curve, poor fit]"
2,CCOc1ccc(-c2[nH]ncc2-c2ccc(OC)c(OC)c2)c(O)c1,inactive
3,Cc1oc2c(c1C(=O)N1CCC(C)CC1)C(=O)c1ccccc1C2=O,"inconclusive [inhibitor, full curve]"
4,CC(C)n1ncc2c(C(=O)NCc3cccnc3)cc(C3CC3)nc21,"inconclusive [inhibitor, full curve, poor fit]"
5,COc1ccc(C[C@H]2c3cc(O)c(OC)cc3CC[N+]2(C)[O-])cc1O (some centres not stated),inactive
6,NC(=S)N=Nc1c(O)n(Cc2ccc(Br)cc2)c2ccccc12,inactive
7,Cc1ccccc1NC(=O)c1c(NC(=O)c2ccncc2)sc2c1CCC(C(C)(C)C)C2 (configuration not stated),inactive
8,O=C(NC1CCC(C(=O)O)CC1)OCc1ccccc1 (configuration not stated),"inconclusive [inhibitor, partial curve, poor fit]"
9,CC1=C(C(=O)OC(C)C)C(c2c[nH]c3ccccc23)n2ncnc2N1 (configuration not stated),"inconclusive [inhibitor, full curve, poor fit]"
10,CN(C)c1ccc(/C=C2\CCCCC2=O)cc1,inactive
11,CCOc1ccc(-c2ncncc2-c2ccc(OC)cc2)c(O)c1,"inconclusive [inhibitor, full curve, poor fit]"
12,CCCCCc1c(O)nc(SCCN(CC)CC)[nH]c1=O,"inconclusive [inhibitor, single point]"
13,COc1ccc(-c2nc(SCC(=O)Nc3ccc4c(c3)OCO4)c(-c3ccccc3)[nH]2)cc1,inactive
14,COc1ccc(C2C=C(C)Nc3nc4ccccc4n32)cc1 (configuration not stated),"inconclusive [inhibitor, partial curve]"
15,C=CCSc1ccsc1C(=O)O,"inconclusive [inhibitor, full curve, poor fit]"
16,CC1CCN(C(C(=O)Nc2ccc(C(C)C)cc2)c2ccc3c(c2)OCO3)CC1 (configuration not stated),"inconclusive [inhibitor, full curve, poor fit]"
17,CC(/C=C1\SC(=S)N(CCC(=O)Nc2nc(C)cs2)C1=O)=C\c1ccccc1,"inconclusive [inhibitor, partial curve]"
18,COc1ccc(NC(=S)N2CCC(c3nc4ccc(Cl)cc4[nH]3)CC2)c(OC)c1,"inconclusive [inhibitor, partial curve]"
19,O=C(c1ccc(Br)s1)N1CCN(S(=O)(=O)c2ccccc2)CC1,"inconclusive [inhibitor, full curve]"
20,O=C(NC(=S)Nc1ccccc1Br)c1cccnc1,inactive
21,O=C(CCC1CCCCC1)Nc1ccc(C(=O)c2ccncc2)cc1,"inconclusive [inhibitor, full curve, poor fit]"
22,Cc1ccc(CNS(=O)(=O)CCNC(=O)c2ccc3c(c2)OCO3)cc1,"inconclusive [inhibitor, full curve, poor fit]"
